Drawing on PMC8233286, this text covers binding for one substance.

Chains of the proteins cited; added tags and fusions are not shown. Residues count along the entry.
UniProt P78536, residues 215-824: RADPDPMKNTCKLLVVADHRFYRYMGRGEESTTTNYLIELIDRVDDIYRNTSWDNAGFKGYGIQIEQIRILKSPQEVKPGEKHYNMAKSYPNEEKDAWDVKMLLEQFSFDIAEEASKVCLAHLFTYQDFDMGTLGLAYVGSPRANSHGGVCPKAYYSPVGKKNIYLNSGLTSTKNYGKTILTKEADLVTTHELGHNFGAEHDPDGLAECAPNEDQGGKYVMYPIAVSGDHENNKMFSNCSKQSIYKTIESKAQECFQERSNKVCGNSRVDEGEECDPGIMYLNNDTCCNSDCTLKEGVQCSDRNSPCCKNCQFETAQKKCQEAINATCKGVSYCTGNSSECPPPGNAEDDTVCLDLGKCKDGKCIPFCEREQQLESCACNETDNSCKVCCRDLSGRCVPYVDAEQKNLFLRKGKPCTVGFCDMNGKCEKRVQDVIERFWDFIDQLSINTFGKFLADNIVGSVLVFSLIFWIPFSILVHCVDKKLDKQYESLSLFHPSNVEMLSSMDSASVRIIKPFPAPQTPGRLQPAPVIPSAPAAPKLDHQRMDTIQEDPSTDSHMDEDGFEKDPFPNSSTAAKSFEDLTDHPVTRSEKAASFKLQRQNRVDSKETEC

Changes are numbered by the printed parent chain. These are yes or no findings as the source states them, for the method shown. In cells and extracts the contact can be indirect. Some binding calls cover weakened binding; strength is not graded here.

Assay [1] concerns the target T1, miR2_L438P (murine iRhom2 with L438P in the first helix of the IRHD) (mouse) (UniProt Q80WQ6).
T1 sequence: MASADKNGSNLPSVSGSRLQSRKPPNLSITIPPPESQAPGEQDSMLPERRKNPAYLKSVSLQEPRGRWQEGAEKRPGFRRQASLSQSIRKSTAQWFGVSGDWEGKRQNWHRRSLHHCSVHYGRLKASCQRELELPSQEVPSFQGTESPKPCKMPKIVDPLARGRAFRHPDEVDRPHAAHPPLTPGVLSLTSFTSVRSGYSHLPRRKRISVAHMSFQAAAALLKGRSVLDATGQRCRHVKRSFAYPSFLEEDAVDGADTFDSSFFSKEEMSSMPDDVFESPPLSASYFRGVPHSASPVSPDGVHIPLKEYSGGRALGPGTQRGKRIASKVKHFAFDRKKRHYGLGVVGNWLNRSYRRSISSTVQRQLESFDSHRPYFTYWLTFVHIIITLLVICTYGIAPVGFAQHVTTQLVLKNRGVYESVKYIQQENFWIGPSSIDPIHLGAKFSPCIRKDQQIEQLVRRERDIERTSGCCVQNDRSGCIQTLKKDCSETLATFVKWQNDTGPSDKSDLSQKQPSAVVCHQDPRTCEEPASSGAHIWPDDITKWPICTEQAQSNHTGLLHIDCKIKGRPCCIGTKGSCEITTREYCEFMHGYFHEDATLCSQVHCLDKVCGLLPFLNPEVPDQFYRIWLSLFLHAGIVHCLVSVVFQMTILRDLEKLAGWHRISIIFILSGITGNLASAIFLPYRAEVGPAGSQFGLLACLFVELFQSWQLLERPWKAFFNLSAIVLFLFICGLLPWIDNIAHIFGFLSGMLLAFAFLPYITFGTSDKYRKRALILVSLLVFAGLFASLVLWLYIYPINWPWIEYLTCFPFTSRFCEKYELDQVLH
Put plainly: co-IP; HA-tagged iRhom construct as bait, anti-HA magnetic beads, cleared lysate of stably expressing HEK293 cells (50 mM Tris, 137 mM NaCl, 2 mM EDTA, 10 mM 1,10-phenanthroline, pH 7.5), 90 min, five washes; endogenous ADAM17 detected by western blot; also after cycloheximide treatment (pulse chase). A general note: A western blot detects proteins with antibodies after separation by electrophoresis.

Assay [2] concerns the target T2, miR2_W545S (murine iRhom2 with W545S in iCERES) (mouse) (UniProt Q80WQ6).
T2 sequence: T1 sequence with P438L, W545S
Described as above.

For the substance “mature ADAM17 (mADAM17), endogenous in HEK293 cells (from UniProt P78536 215-824) (enzyme)”, the figures for the binding entry in assay [1] and in assay [2] were “no binding” and “binds”, respectively.
